T1: RBFOX1 RRM RbFoxmut (Fox-RRM*) (Homo sapiens, UniProt Q9NWB1 109-208, R118D;E147R;N151S;E152T)
T1 sequence: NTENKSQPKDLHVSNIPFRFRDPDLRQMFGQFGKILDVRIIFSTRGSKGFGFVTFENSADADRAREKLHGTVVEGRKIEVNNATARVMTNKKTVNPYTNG

B1: GCUUGUC (DNA:RNA)
RNA: GGGAGACCGGAAUUCAGAUUGUCCGCUUGUCUUAAAUCCCGUCGUAGCCACCA
DNA 1: CAATCTGAATTCCGGTCTCCC
DNA 2: TGGTGGCTACGACGGGATT
B2: CUUGGUC (DNA:RNA)
RNA: B1 RNA with G25C, C26U, U28G
DNA 1: CAATCTGAATTCCGGTCTCCC
DNA 2: TGGTGGCTACGACGGGATT
B3: UGCGGCC (DNA:RNA)
RNA: B1 RNA with G25U, C26G, U27C, U28G, U30C
DNA 1: CAATCTGAATTCCGGTCTCCC
DNA 2: TGGTGGCTACGACGGGATT
B4: GGCAAGG (DNA:RNA)
RNA: B1 RNA with C26G, U27C, U28A, G29A, U30G, C31G
DNA 1: CAATCTGAATTCCGGTCTCCC
DNA 2: TGGTGGCTACGACGGGATT
B5: AAACAAG (DNA:RNA)
RNA: GGGAGACCGGAAUUCAGAUUGUCCAAACAAGUUAAAUCCCGUCGUAGCCACCA
DNA 1: CAATCTGAATTCCGGTCTCCC
DNA 2: TGGTGGCTACGACGGGATT
B6: UCUACUA (DNA:RNA)
RNA: B1 RNA with G25U, U28A, G29C, C31A
DNA 1: CAATCTGAATTCCGGTCTCCC
DNA 2: TGGTGGCTACGACGGGATT
B7: UGCUCUU (DNA:RNA)
RNA: B1 RNA with G25U, C26G, U27C, G29C, C31U
DNA 1: CAATCTGAATTCCGGTCTCCC
DNA 2: TGGTGGCTACGACGGGATT
B8: GGUACAA (DNA:RNA)
RNA: B1 RNA with C26G, U28A, G29C, U30A, C31A
DNA 1: CAATCTGAATTCCGGTCTCCC
DNA 2: TGGTGGCTACGACGGGATT
B9: UACUACA (DNA:RNA)
RNA: B5 RNA with A25U, A27C, C28U, A30C, G31A
DNA 1: CAATCTGAATTCCGGTCTCCC
DNA 2: TGGTGGCTACGACGGGATT
B10: CCUUACG (DNA:RNA)
RNA: B1 RNA with G25C, G29A, U30C, C31G
DNA 1: CAATCTGAATTCCGGTCTCCC
DNA 2: TGGTGGCTACGACGGGATT
B11: UAGGCAG (DNA:RNA)
RNA: B5 RNA with A25U, A27G, C28G, A29C
DNA 1: CAATCTGAATTCCGGTCTCCC
DNA 2: TGGTGGCTACGACGGGATT
B12: AUAUGCC (DNA:RNA)
RNA: B1 RNA with G25A, C26U, U27A, U30C
DNA 1: CAATCTGAATTCCGGTCTCCC
DNA 2: TGGTGGCTACGACGGGATT
B13: UGUUUAG (DNA:RNA)
RNA: B5 RNA with A25U, A26G, A27U, C28U, A29U
DNA 1: CAATCTGAATTCCGGTCTCCC
DNA 2: TGGTGGCTACGACGGGATT
B14: AACACCA (DNA:RNA)
RNA: B5 RNA with A27C, C28A, A29C, A30C, G31A
DNA 1: CAATCTGAATTCCGGTCTCCC
DNA 2: TGGTGGCTACGACGGGATT
B15: AGUUUGG (DNA:RNA)
RNA: B5 RNA with A26G, A27U, C28U, A29U, A30G
DNA 1: CAATCTGAATTCCGGTCTCCC
DNA 2: TGGTGGCTACGACGGGATT
B16: UGAAAUG (DNA:RNA)
RNA: B5 RNA with A25U, A26G, C28A, A30U
DNA 1: CAATCTGAATTCCGGTCTCCC
DNA 2: TGGTGGCTACGACGGGATT
B17: ACUCAAU (DNA:RNA)
RNA: B5 RNA with A26C, A27U, G31U
DNA 1: CAATCTGAATTCCGGTCTCCC
DNA 2: TGGTGGCTACGACGGGATT
B18: AUUGCAU (DNA:RNA)
RNA: B5 RNA with A26U, A27U, C28G, A29C, G31U
DNA 1: CAATCTGAATTCCGGTCTCCC
DNA 2: TGGTGGCTACGACGGGATT
B19: CAGGUGG (DNA:RNA)
RNA: B5 RNA with A25C, A27G, C28G, A29U, A30G
DNA 1: CAATCTGAATTCCGGTCTCCC
DNA 2: TGGTGGCTACGACGGGATT
B20: CUCUUAU (DNA:RNA)
RNA: B5 RNA with A25C, A26U, A27C, C28U, A29U, G31U
DNA 1: CAATCTGAATTCCGGTCTCCC
DNA 2: TGGTGGCTACGACGGGATT
B21: UAUCGCA (DNA:RNA)
RNA: B5 RNA with A25U, A27U, A29G, A30C, G31A
DNA 1: CAATCTGAATTCCGGTCTCCC
DNA 2: TGGTGGCTACGACGGGATT
B22: ACCUUGG (DNA:RNA)
RNA: B5 RNA with A26C, A27C, C28U, A29U, A30G
DNA 1: CAATCTGAATTCCGGTCTCCC
DNA 2: TGGTGGCTACGACGGGATT
B23: ACCUGUA (DNA:RNA)
RNA: B1 RNA with G25A, U27C, C31A
DNA 1: CAATCTGAATTCCGGTCTCCC
DNA 2: TGGTGGCTACGACGGGATT
B24: CUCGGGA (DNA:RNA)
RNA: B1 RNA with G25C, C26U, U27C, U28G, U30G, C31A
DNA 1: CAATCTGAATTCCGGTCTCCC
DNA 2: TGGTGGCTACGACGGGATT
B25: ACUGAGG (DNA:RNA)
RNA: B5 RNA with A26C, A27U, C28G, A30G
DNA 1: CAATCTGAATTCCGGTCTCCC
DNA 2: TGGTGGCTACGACGGGATT
B26: AAGGUGG (DNA:RNA)
RNA: B5 RNA with A27G, C28G, A29U, A30G
DNA 1: CAATCTGAATTCCGGTCTCCC
DNA 2: TGGTGGCTACGACGGGATT
B27: GUCCCCC (DNA:RNA)
RNA: B1 RNA with C26U, U27C, U28C, G29C, U30C
DNA 1: CAATCTGAATTCCGGTCTCCC
DNA 2: TGGTGGCTACGACGGGATT
B28: CGCAGAU (DNA:RNA)
RNA: B5 RNA with A25C, A26G, A27C, C28A, A29G, G31U
DNA 1: CAATCTGAATTCCGGTCTCCC
DNA 2: TGGTGGCTACGACGGGATT
B29: GCCUGCC (DNA:RNA)
RNA: B1 RNA with U27C, U30C
DNA 1: CAATCTGAATTCCGGTCTCCC
DNA 2: TGGTGGCTACGACGGGATT
B30: UAUAAGC (DNA:RNA)
RNA: B5 RNA with A25U, A27U, C28A, A30G, G31C
DNA 1: CAATCTGAATTCCGGTCTCCC
DNA 2: TGGTGGCTACGACGGGATT
B31: UCCAAAU (DNA:RNA)
RNA: B5 RNA with A25U, A26C, A27C, C28A, G31U
DNA 1: CAATCTGAATTCCGGTCTCCC
DNA 2: TGGTGGCTACGACGGGATT

Substitutions are numbered along the chain they refer to; changes in the protein carry UniProt numbers. Some of the results follow.

This note sets out measurements from publication PMC9911399, “Two distinct binding modes provide the RNA-binding protein RbFox with extraordinary sequence specificity”.

This assay has as its target T1, RBFOX1 RRM RbFoxmut (Fox-RRM*). Put plainly: EMSA; HiTS-Eq, 1 nM pool, 10 min; buffer printed only for the single-RNA assays: 10 mM Tris pH 7.5, 150 mM NaCl, 3.4 mM EDTA, 0.001% NP-40, 30 C. Particulars: tags: His6 N-terminal (pET28a); label: 5' 32P. Summed up: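 Purified RbFox RRM (wild type or mutant) was equilibrated for 10 min in 50 µL with 1 nM of a 5′-radiolabelled pool of RNA with 7 randomized nucleotides, its flanks annealed to DNA oligonucleotides, across increasing protein concentrations. Free RNA was separated by 8% native PAGE, excised, reverse-transcribed, PCR-barcoded and sequenced on an Illumina HiSeq 2500. Relative association constants came from read-count changes of each variant against the control reaction, normalised to the cognate motif.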
Take B1: the binding signal is 0.248 KA relative to UGCAUGU.

For the molecule B2, the binding signal is 0.173 KA relative to UGCAUGU.

B3: the binding signal was 0.294 KA relative to UGCAUGU.

Consider B4, for which the binding signal was 0.074 KA relative to UGCAUGU.

Turning to B5, the binding signal is 0.0927 KA relative to UGCAUGU.

Consider B6, for which the binding signal is 0.112 KA relative to UGCAUGU.

With B7, the binding signal is 0.0655 KA relative to UGCAUGU.

Turning to B8, the binding signal was 0.0729 KA relative to UGCAUGU.

For B9, the binding signal is 0.139 KA relative to UGCAUGU.

Consider B10, for which the binding signal was 0.121 KA relative to UGCAUGU.

B11: the binding signal is 0.0736 KA relative to UGCAUGU.

As for B12, the binding signal was 0.223 KA relative to UGCAUGU.

Consider B13, for which the binding signal is 0.125 KA relative to UGCAUGU.

Turning to B14, the binding signal was 0.115 KA relative to UGCAUGU.

B15: the binding signal is 0.118 KA relative to UGCAUGU.

For the molecule B16, the binding signal was 0.158 KA relative to UGCAUGU.

Regarding B17, the binding signal was 0.0571 KA relative to UGCAUGU.

Consider B18, for which the binding signal is 0.13 KA relative to UGCAUGU.

For B19, the binding signal was 0.0789 KA relative to UGCAUGU.

For B20, the binding signal is 0.112 KA relative to UGCAUGU.

Take B21: the binding signal was 0.106 KA relative to UGCAUGU.

Turning to B22, the binding signal is 0.114 KA relative to UGCAUGU.

With B23, the binding signal is 0.156 KA relative to UGCAUGU.

Consider B24, for which the binding signal was 0.0642 KA relative to UGCAUGU.

Regarding B25, the binding signal was 0.0777 KA relative to UGCAUGU.

For B26, the binding signal is 0.101 KA relative to UGCAUGU.

Regarding B27, the binding signal was 0.0401 KA relative to UGCAUGU.

Turning to B28, the binding signal is 0.105 KA relative to UGCAUGU.

As to B29, the binding signal is 0.176 KA relative to UGCAUGU.

B30: the binding signal was 0.0698 KA relative to UGCAUGU.

Regarding B31, the binding signal was 0.0505 KA relative to UGCAUGU.
